The values that follow come from paper PMC4336329 (PLoS ONE, 2015).

Out of some 310,000 compounds screened, about 2,200 (0.71%) showed an effect of 50% or more. The effect is printed as a negative number. The list shows a part of the results.

The target in the assay is human ether-à-go-go-related gene (hERG) potassium channel (human, UniProt Q12809). The experiment in a line: primary screen, population patch clamp on CHO cells stably expressing hERG.
human ether-à-go-go-related gene (hERG) potassium channel, sequence (Q12809 whole entry, looked up): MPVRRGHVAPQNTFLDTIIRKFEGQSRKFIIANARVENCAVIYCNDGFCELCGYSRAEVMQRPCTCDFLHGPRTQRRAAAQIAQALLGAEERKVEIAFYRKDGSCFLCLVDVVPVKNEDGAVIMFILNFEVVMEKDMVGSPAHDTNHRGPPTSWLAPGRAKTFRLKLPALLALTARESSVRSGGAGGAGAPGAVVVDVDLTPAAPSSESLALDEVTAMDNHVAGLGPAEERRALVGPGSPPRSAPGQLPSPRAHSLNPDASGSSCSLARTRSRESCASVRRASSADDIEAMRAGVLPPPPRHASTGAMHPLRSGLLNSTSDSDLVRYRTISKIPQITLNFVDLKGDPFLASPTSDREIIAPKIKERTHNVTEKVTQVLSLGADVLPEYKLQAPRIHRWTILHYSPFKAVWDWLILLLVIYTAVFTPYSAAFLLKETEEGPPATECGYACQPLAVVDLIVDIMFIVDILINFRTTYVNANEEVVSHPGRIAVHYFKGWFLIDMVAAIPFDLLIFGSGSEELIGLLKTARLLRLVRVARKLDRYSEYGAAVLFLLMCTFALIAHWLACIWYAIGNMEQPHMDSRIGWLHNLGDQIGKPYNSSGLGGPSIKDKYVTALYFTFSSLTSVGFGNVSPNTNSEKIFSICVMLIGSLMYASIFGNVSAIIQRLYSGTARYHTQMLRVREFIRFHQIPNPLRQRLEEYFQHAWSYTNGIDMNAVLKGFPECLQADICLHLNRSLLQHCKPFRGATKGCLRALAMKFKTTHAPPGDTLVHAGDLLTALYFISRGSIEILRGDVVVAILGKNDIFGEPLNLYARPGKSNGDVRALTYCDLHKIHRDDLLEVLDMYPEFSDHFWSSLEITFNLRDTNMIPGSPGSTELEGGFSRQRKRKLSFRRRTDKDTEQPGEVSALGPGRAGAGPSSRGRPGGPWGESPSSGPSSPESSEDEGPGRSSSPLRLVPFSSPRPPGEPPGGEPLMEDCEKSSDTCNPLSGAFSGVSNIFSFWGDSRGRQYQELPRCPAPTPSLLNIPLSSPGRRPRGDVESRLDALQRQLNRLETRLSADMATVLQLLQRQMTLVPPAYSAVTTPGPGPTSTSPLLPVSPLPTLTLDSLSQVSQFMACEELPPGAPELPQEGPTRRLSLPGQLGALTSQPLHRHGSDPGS
Take `c1ccc(OCc2nc3c4c(ncn3n2)-c2ccccc2CC42CCCC2)cc1`: the “hERG current change (%, negative = inhibition) at 1uM” value was 4.05%.
Next, `COC(=O)C1=C(C)Nc2nnnn2C1c1ccco1` (centres unmarked): 2.86%; `O=C(NCc1ccc2[nH]c3c(c2c1)CCCC3)N1CCOCC1`: 7.25%.
Turning to `CC(NC(=O)Cn1nc(C(F)(F)F)c2c1CCC2)c1ccccc1` (centres unmarked), the “hERG current change (%, negative = inhibition) at 1uM” value is 0.954%.
Next, `O=C(CSc1cccc[n+]1[O-])c1ccc(Cl)s1`: 8.71%; `COc1ccccc1CCNC(=O)c1cnccn1`: -0.0182%.
As for `O=C(COc1ccccc1)Nc1ncn[nH]1`, the figure is 14%.
`O=C(O)c1ccc(COc2ccc(CO)cc2Cl)cc1`: the “hERG current change (%, negative = inhibition) at 1uM” value is -1.7%.
Next, `CC(=O)N1CCN(c2ccc(S(=O)(=O)N3CCCCC3)cn2)CC1`: -1.13%; `COc1cc(/C=C/CN2CCN(CCC(C)C)C(CCO)C2)ccc1O` (centres unmarked): 12.9%.
With `O=C(CC1(O)C(=O)Nc2ccccc21)c1ccccc1O` (centres unmarked), the “hERG current change (%, negative = inhibition) at 1uM” value was 6.42%.
Take `Cc1cccc2cc(CN(C(=O)c3cccc([N+](=O)[O-])c3)C(C)C)c(=O)[nH]c12`: the “hERG current change (%, negative = inhibition) at 1uM” value was found to be 8.45%.
With `CCCSC1=C(C#N)C(c2ccc(OC)cc2)C2=C(CC(C)(C)CC2=O)N1` (centres unmarked), the “hERG current change (%, negative = inhibition) at 1uM” value was determined as 2.41%.
As for `COc1ccc(Cl)cc1NC(=O)C(C)N1CCN(c2ccccn2)CC1` (centres unmarked), the figure is 0.814%; as for `NC1=NC[C@H](c2ccccc2)N1CCc1cc(C(F)(F)F)cc(C(F)(F)F)c1`, -2.01%.
Next, `CCOC(=O)/C(C#N)=C/c1c[nH]c2ccccc12`: 3.21%; `O=C(CCc1ccccn1)NC1CCCc2c1cnn2-c1ccc(F)cc1F` (centres unmarked): 5.66%.
As for `Cc1ccc(CN2C(=O)[C@H]3Cc4c([nH]c5ccccc45)C(C)(C)N3C2=O)cc1`, the figure is 19.7%.
With `COc1ccccc1C(=O)NNC(=O)c1cccc(Br)c1`, the “hERG current change (%, negative = inhibition) at 1uM” value was 16.4%.
Next, `COc1cc(S(=O)(=O)NC(C)C)ccc1Cl`: 1.36%.
Next, `CC(Sc1nnc(-c2ccc(OC(F)F)cc2)o1)C(=O)NCC1CCCO1` (centres unmarked): -7.64%; `CCOc1ccc(C(C)=O)cc1COc1cccnc1[N+](=O)[O-]`: 9.57%; `CCN1C(=O)S/C(=C\c2ccc(N3CCOCC3)cc2C)C1=O`: -25.1%.
Next, `O=C(/C=C/c1cccs1)NC(=S)Nc1ccc(S(=O)(=O)Nc2ccccc2C(F)(F)F)cc1`: 10.2%; `COc1ccc(C)cc1NC(=O)c1ccc([N+](=O)[O-])cc1[N+](=O)[O-]`: 3.08%.
Regarding `CCCCN(CCCC)c1nc(-c2ccncc2)nc2ccccc12`, the “hERG current change (%, negative = inhibition) at 1uM” value stood at 12%.
Regarding `Cc1ccccc1CS(=O)(=O)c1cnc2ccccc2n1`, the “hERG current change (%, negative = inhibition) at 1uM” value is reported as 10.7%.
As to `CC(=O)C1=C(O)C(=O)N(c2ccc(O)cc2)C1c1ccc(F)cc1` (centres unmarked), the “hERG current change (%, negative = inhibition) at 1uM” value worked out at 15.3%.
Next, `C=CCn1c(SCC(=O)NCC)nnc1-c1cc2c(s1)CCC(CC)C2` (centres unmarked): 9.96%; `CC(=O)c1ccc(N2CCN(CC(=O)Nc3ccc(N4CCOCC4)cc3)CC2)cc1`: 5.88%.
Next, `CCN(CC)C(=O)C(=O)c1cccn1-c1ccc(C#N)cc1`: -1.14%.
Next, `O=C(CCCCl)Nc1nc(-c2ccc3c(c2)OCCO3)cs1`: 10.4%.
Turning to `N#Cc1ccc(S(=O)(=O)N2CCN(C(=O)C3CC(=O)N(c4ccc5c(c4)OCCO5)C3)CC2)cc1` (centres unmarked), the “hERG current change (%, negative = inhibition) at 1uM” value is given as -4.01%.
Regarding `O=C1OCc2nc3cc4c(cc3c(-c3ccc(F)cc3)c21)OCO4`, the “hERG current change (%, negative = inhibition) at 1uM” value was 20.4%.
Next, `CN1C(=O)c2cccc3c(S(=O)(=O)NCCc4ccccc4)ccc1c23`: -4.73%.
As for `CCOC(=O)C1=C(C)NC(C)=C(C(=O)OCC)C1c1ccco1`, the figure is 9.56%.
Next, `O=S(=O)(NCc1ccco1)c1ccc(S(=O)(=O)N2CCCC2)cc1`: 15.4%.
In the case of `Cc1cc(C)c2c(=O)[nH]c(SCC(=O)N3CCCCC3)nc2n1`, the “hERG current change (%, negative = inhibition) at 1uM” value is reported as 1.86%.
`COc1cc(CN2CCC(n3nccc3NC(=O)c3ccc4c(c3)OCO4)CC2)ccc1O`: the “hERG current change (%, negative = inhibition) at 1uM” value turned out to be 7.03%.
As to `Cc1ccc(C)c(Sc2ccc(S(=O)(=O)Nc3ccc(C(=O)O)cc3)cc2)c1`, the “hERG current change (%, negative = inhibition) at 1uM” value was found to be 4.98%.
Next, `O=C(CCc1ccc(S(=O)(=O)NCc2ccccc2)cc1)N1CCN(Cc2ccc3c(c2)OCO3)CC1`: -5.17%.
As for `O=C(CSc1ccsc1[N+](=O)[O-])N1CCN(c2ccccc2)CC1`, the figure is 6.55%; as for `c1ccc2c(c1)oc1c(NCc3ccc4c(c3)OCO4)ncnc12`, 14.7%.
As for `Cc1ccc(Cl)cc1N1CCN(S(=O)(=O)c2c(C)[nH]c(C)c2C(=O)N2CCCC2)CC1`, the figure is 10.1%; as for `C/C=C(\C)C(=O)N1CCC(C(=O)c2ccccc2)CC1`, 13.9%.
Turning to `COc1ccc(NC(=S)Nc2ccccn2)c(OC)c1`, the “hERG current change (%, negative = inhibition) at 1uM” value was 15.2%.
On to `Cc1n[nH]c(C)c1S(=O)(=O)N1CCc2ccccc21.Cl`, for which the “hERG current change (%, negative = inhibition) at 1uM” value was found to be 11.6%.
As for `CCCCn1c(SCC(=O)NNC(=O)c2ccco2)nnc1-c1ccco1`, the figure is 11.4%; as for `CC(C)Nc1nc(Cl)nc(NNC(=O)C(C)Oc2ccccc2)n1` (centres unmarked), 4.7%; as for `Cc1cc(N2CCCC2)ccc1NC(=O)CN1C(=O)NC(C)(c2ccccc2)C1=O` (centres unmarked), 16%.
For the molecule `O=C1c2ccccc2C(Nc2ccc(S(=O)(=O)N3CCCCCC3)cc2)N1c1ccccn1` (centres unmarked), the “hERG current change (%, negative = inhibition) at 1uM” value came to 10.4%.
As for `O=C(O)Cc1cc2c(s1)CCCCC2`, the “hERG current change (%, negative = inhibition) at 1uM” value came to 11.7%.
As for `Cc1nc2c(C(=O)N3CCN(c4ccccn4)CC3)cnn2c(C)c1Cc1cccc(Cl)c1`, the figure is -1.34%.
As for `c1ccc(-c2noc(-c3ccc4ccccc4c3)n2)nc1`, the figure is 17.2%.
As for `CC(C)(C)C(=O)Nc1ccc(Oc2ccc3c(c2)C(=O)N(c2ccc(O)cc2)C3=O)cc1`, the “hERG current change (%, negative = inhibition) at 1uM” value was -22.8%.
Consider `Cc1cc(C)nc(N2CCCC(C(=O)NCCC3=CCCCC3)C2)n1` (centres unmarked), for which the “hERG current change (%, negative = inhibition) at 1uM” value was found to be 0.0136%.
